Experimental data taken from PMC2782911 (Cancer, 2009).

Test system: histone H4-Lys[16] acetylation
Assay: Western blot of acetylation status of histone H4-Lys16 in MCF7 cells
Conditions: SLC5A8-expressing MCF7 cells cultured with compound (1 mM)

| SMILES | acetylation status of histone H4-Lys[16] |
| --- | --- |
| CC(=O)C(=O)O [pyruvate] | increased |
| O=C(O)C(=O)CBr [3-bromopyruvate] | increased |
